# The campaign covered roughly 310,000 compounds. About 2,200 (0.71%) showed an effect of 50% or more. The effect is printed as a negative number. The list shows a part of the results.
# Target: human ether-à-go-go-related gene (hERG) potassium channel (human, UniProt Q12809)
# Experiment: primary screen, population patch clamp on CHO cells stably expressing hERG
# Chain of human ether-à-go-go-related gene (hERG) potassium channel (Q12809 whole entry, looked up): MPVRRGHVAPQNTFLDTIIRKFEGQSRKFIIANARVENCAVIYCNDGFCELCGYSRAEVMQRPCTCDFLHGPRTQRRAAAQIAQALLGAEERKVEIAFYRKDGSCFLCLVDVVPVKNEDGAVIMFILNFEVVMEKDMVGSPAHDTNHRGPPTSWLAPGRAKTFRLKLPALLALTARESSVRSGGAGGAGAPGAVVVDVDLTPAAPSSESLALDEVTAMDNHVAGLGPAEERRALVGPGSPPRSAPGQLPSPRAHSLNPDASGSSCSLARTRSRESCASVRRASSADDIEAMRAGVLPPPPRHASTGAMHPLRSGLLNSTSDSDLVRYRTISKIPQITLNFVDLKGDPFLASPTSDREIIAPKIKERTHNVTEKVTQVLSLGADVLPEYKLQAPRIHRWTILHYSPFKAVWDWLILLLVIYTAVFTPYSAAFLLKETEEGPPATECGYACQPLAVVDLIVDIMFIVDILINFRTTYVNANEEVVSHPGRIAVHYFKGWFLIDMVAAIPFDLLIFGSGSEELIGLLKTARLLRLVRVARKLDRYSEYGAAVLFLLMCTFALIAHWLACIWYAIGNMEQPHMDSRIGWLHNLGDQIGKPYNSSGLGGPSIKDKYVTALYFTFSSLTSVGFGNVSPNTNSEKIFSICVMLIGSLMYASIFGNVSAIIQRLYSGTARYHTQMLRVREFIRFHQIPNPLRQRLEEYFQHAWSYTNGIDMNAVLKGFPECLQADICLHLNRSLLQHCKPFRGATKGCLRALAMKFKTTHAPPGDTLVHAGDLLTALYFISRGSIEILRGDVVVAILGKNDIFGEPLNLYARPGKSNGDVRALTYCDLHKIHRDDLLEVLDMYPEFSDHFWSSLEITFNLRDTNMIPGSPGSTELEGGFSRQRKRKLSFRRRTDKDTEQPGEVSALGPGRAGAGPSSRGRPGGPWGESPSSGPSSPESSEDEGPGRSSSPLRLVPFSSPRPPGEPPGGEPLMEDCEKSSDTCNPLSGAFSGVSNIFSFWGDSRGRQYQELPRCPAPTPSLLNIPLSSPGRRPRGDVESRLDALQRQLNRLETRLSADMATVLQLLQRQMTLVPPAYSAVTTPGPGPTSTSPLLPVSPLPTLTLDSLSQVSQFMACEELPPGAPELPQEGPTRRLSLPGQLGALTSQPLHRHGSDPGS
row,SMILES,"hERG current change (%, negative = inhibition) at 1uM [%]"
1,c1ccc(SCc2nc(-c3ccncc3)no2)cc1,11.1
2,OCCCNc1nc(-c2ccccc2)nc2c1oc1ccccc12,16.8
3,Cc1cccn2cc(-c3cc4ccccc4oc3=O)nc12,11.6
4,NC(=O)C1=C[C@@H](c2ccccc2)C[C@@H](OCCCCO)O1,16.7
5,CN(C)Cc1cc(C(C)(C)C)cc(C(C)(C)C)c1O,5.8
6,COc1ccc(S(=O)(=O)N2CCN(c3ccc(C)cc3C)CC2)cc1OC,4.67
7,Cc1ccc(S(=O)(=O)N2CCCCC2)cc1NC(=O)COC(=O)Cc1c(F)cccc1Cl,14.5
8,CC1CCc2c(sc(NC(=O)C3=COCCO3)c2C(N)=O)C1 (stereo not shown),6.96
9,CC(=O)c1ccc(NC(=O)/C(=C\c2ccco2)NC(=O)c2ccco2)cc1,4.96
10,CC(=O)N1N=C(c2ccncc2)OC12CCCCCC2,10.9
11,CCCCOc1ccc(C(=O)NCc2ccncc2)cc1,4.06
12,NC(=O)CSc1nnc(-c2cnccn2)n1Cc1ccco1,10.9
13,CCOc1ccc(S(=O)(=O)N(CC(=O)NCc2cccnc2)c2ccc(C)cc2)cc1,-52.4
14,Cc1nc(NN)c2c3c(sc2n1)COC(C)(C)C3,9.19
15,CC(OC(=O)CCc1cc(C(C)(C)C)c(O)c(C(C)(C)C)c1)C(=O)NC1CC1 (stereo not shown),6.76
16,C=CC(=O)NC(NC(=O)C=C)c1ccc(Br)cc1,3.98
17,CCCCn1ccnc1C,7.41
18,O=C(Cc1ccc2c(c1)OCCO2)N1CCN(S(=O)(=O)c2ccccc2C(F)(F)F)CC1,-3.22
19,CCN=C(NCC)SC1CC(=O)N(c2ccc(OCC)cc2)C1=O (stereo not shown),7.6
20,O=C(COc1ccc(S(=O)(=O)NC2CCCC2)cc1)N1CCCCCC1,15.9

row,SMILES,"hERG current change (%, negative = inhibition) at 1uM [%]"
1,Cc1ccc(Nc2nc(C(=O)N3CCC(C(=O)N4CCN(C)CC4)CC3)cs2)cc1,14.2
2,CCC(C)[C@@H](C(=O)N1CCNCC1)n1cc(CCCN=C(N)N)nn1.Cl (stereo partly shown),12
3,CCOC(=O)C1CCCN(S(=O)(=O)c2ccc3c4c(cccc24)C(=O)N3CC)C1 (stereo not shown),-27.6
4,CCOC(=O)C(=CNc1nc2ccc(C(=O)OCC)cc2s1)C(=O)OCC,15.8
5,COc1ccccc1-c1nnc(SCC(=O)Nc2c(Cl)cccc2Cl)o1,0.12
6,Cc1ccc(NC(=O)c2oc3ccccc3c2NC(=O)C2CC2)cc1,4.39
7,CCN(CCn1cccn1)C(=O)c1cc(COc2ccc(F)cc2Cl)on1,2.39
8,CCOC(=O)c1cc(-c2cccc(C(F)(F)F)c2)nc2nc(SC)[nH]c(=O)c12,-11
9,O=C(CSc1nnc(-c2cccnc2)n1C1CCCCC1)NC1CCCC1,-10
10,CCOc1ccccc1CN1CCNC(=O)C1CC(=O)N(C)CCC1CCOCC1 (stereo not shown),9.31
11,O=C(CCn1cccc1)NC1CCCc2ccccc21 (stereo not shown),10.9
12,O=C1CC2(CCCCC2)Oc2ccc(O)cc21,-4.76
13,COc1ccc(NC(=O)N2CCCc3ccccc32)cc1OC,14.3
14,O=C(CCN1C(=O)c2ccccc2C1=O)NC(=S)Nc1ccccc1,5.81
15,O=C(O)c1ccc2c(c1)C(=O)/C(=C\c1ccco1)C2=O,-0.191
16,Cc1cc(C)c(O)c(-c2cc(C(=O)Nc3ccc(S(=O)(=O)N4CCOCC4)cc3)[nH]n2)c1,1.78
17,COC(=O)[C@@H]1[C@@H](C)N(Cc2ccccc2)C(=O)N[C@H]1c1cccc(C(F)(F)F)c1,13.8
18,CCSCc1nnc(SCC(=O)Nc2nc3ccccc3s2)n1C,0.904
19,CCOC(=O)C1=C(C)NC(=O)/C1=C\N(C)C,10.8
20,CCN(CC)S(=O)(=O)c1ccc(N2CCOCC2)c(NC(=O)Cc2ccccc2)c1,-18.5

row,SMILES,"hERG current change (%, negative = inhibition) at 1uM [%]"
1,CCc1nnc(NC(=O)CSc2nnc(-c3ccc(O)cc3)n2C)s1,12.8
2,O=C(Oc1c(Br)cc([N+](=O)[O-])cc1Br)c1cccnc1,12.8
3,COc1ccc(-c2cc(C3CC3)nc3sc(C#N)c(N)c23)cc1,9.96
4,O=C(c1ccc2c(c1)ncn2C1CCCCCC1)N1CCC2(CC1)OCCO2,-1.61
5,O=C(Nc1ccc(F)cc1)Nc1ccc(Oc2ncnc3cc(Cl)ccc23)nc1,10.5
6,Cc1csc(NC(C)c2nc3cc(C(F)(F)F)ccc3n2CCCO)n1 (stereo not shown),7.5
7,CCC(=O)c1ccc(OCC(O)CN2CCN(S(=O)(=O)c3ccc(NC(C)=O)cc3)CC2)cc1 (stereo not shown),8.57
8,CCC(C)c1ccc(O)c(N)c1 (stereo not shown),10.8
9,CC(C)CN(CC(C)C)C(=O)C12CCC(C)(C(=O)C1)C2(C)C (stereo not shown),6.63
10,COc1ccc(CCNC(=O)c2c(C)nn(CC(C)C)c2Cl)cc1,12.2
11,Cc1cc(NC(=O)c2cc(C(C)(C)C)oc2C)no1,10.1
12,COC(=O)c1c(-c2ccc(OC)cc2)oc2ccc(-c3ccc(OC)nc3)cc12,10.7
13,COc1cccc(NC(=O)C(=O)N/N=C/c2ccc3c(c2)OCO3)c1,9.92
14,CCc1ccccc1NC(=O)C/C(C)=N/NC(=O)COc1ccccc1C,10.3
15,NS(=O)(=O)c1ccc(CNC(=O)c2cc(=O)c3cc(Cl)ccc3o2)cc1,8.09
16,CCOC(=O)N1CCC(NC(=O)c2oc3c(C)c(C)ccc3c2C)CC1,-6.31
17,CCn1c(/C=C/c2ccccc2F)nc2ccccc2c1=O,14.6
18,Clc1cccc2sc(N3CCCCC3)nc12,15.8

# Source: PMC4336329 (PLoS ONE, 2015)
